Consider 2 molecules from PMC10572825 (2023).

The assay has as its target Tenascin-C (Mus musculus, UniProt Q80YX1, FITC-labelled tenascin-C). Description: isothermal fluorescence titration.

B1: CXCL8 (protein)
chain: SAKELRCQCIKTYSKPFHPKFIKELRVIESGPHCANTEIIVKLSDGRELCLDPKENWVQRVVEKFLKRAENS
Molecule B1 returned a Kd of 1990 nM.

B2: CXCL10 (protein)
chain: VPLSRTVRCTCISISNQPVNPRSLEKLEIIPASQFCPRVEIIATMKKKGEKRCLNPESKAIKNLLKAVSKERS
B2: the dissociation constant Kd came out at 1360 nM.

In general, Kd refers to the free concentration of one partner at which half of the binding sites on the other are occupied at equilibrium, for simple one-to-one binding. The low end stands for tighter binding, the high end for weaker binding.
